In patent US8088574B2, “Poly(A) polymerase” (Wisconsin Alumni Research Foundation, priority 2007, dated 2012):

Target: PAPα (Homo sapiens, UniProt P51003)
Assay: PAP assay with FLAG-PAPα isolated from tBHQ-treated cells
Assay type: cell-based
Details: 100 μM tBHQ

Chain of PAPα (P51003 whole entry): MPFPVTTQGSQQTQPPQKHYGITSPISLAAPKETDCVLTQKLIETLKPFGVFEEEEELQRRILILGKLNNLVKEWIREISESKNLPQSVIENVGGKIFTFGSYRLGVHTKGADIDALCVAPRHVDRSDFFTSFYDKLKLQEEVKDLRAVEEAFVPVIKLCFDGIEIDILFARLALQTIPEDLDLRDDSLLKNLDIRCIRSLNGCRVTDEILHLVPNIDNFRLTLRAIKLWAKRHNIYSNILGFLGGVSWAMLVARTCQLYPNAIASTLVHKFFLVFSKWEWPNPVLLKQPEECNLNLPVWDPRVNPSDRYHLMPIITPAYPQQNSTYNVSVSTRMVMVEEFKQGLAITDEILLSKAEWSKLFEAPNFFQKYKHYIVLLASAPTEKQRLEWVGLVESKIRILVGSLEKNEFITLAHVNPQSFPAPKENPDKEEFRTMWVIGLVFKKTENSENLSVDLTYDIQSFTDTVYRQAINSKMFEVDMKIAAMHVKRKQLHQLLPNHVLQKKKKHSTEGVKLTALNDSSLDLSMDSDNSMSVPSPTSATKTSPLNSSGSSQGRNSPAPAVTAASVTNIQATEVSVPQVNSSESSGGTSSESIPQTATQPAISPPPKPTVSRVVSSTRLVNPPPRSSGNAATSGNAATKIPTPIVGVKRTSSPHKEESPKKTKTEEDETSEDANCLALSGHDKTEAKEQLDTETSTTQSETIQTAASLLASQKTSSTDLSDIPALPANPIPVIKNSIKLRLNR

## CC(C)(C)c1cc(O)ccc1O [tBHQ, tert-butylhydroquinone]
  activity of PAPα isolated from tBHQ-treated cells: Neither polymerase-inactive Star-PAP nor PAPα showed any increase in activity
